Data on 113 molecules can be found in PubChem BioAssay AID488969 (Vanderbilt High Throughput Screening Facility, 2010).

The full ranking holds about 110,000 compounds; the median of “z-score” is about -0.1, and the highest 2% start at about 2. Some of the results follow. Active and inactive are the calls of the source.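 Rule for the calls: active = z-score in the third read window above 3 or below -3; inactive = the rest.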

For the assay, the target named is Metabotropic glutamate receptor 8 (Rattus norvegicus) (UniProt P70579). The experiment in a line: rat mGluR8 modulators via GIRK flux, primary screen, cell-based, thallium flux, HTS (AID 488969). To be noted: HEK293 rat mGluR8, GIRK (G protein-gated inwardly rectifying potassium channel) thallium flux, FluoZin2; at 10 µM; stronger effect = higher value; submaximal glutamate (EC20) added with thallium.
Chain of UniProt P70579 (P70579 whole entry, looked up): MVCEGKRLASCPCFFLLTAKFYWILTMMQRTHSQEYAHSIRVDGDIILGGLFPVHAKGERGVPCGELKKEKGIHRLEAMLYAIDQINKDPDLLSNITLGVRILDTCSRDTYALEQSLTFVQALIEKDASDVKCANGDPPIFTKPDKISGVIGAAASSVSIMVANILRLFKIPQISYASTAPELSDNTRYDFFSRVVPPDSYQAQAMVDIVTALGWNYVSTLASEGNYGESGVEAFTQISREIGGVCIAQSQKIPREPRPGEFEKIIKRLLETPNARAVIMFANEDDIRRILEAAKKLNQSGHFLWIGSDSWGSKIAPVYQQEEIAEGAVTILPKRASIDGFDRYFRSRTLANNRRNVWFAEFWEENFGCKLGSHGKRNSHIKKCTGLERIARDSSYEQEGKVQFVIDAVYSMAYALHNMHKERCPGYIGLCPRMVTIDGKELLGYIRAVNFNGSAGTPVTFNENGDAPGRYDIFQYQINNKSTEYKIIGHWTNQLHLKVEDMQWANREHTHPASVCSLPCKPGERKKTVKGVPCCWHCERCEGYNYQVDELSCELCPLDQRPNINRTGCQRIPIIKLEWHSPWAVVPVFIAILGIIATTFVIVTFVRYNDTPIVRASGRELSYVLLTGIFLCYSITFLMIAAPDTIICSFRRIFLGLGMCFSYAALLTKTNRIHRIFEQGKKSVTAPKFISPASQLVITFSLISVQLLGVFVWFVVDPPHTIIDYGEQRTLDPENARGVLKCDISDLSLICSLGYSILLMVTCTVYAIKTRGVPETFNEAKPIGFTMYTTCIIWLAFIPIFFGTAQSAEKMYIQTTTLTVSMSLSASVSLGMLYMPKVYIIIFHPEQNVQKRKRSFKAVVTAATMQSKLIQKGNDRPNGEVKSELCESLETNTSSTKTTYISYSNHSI
Turning to `COc1cccc(N(C(=O)c2ccco2)C(C(=O)NC2CCCC2)c2ccc(N(C)C)cc2)c1` (stereo not drawn), the z-score was 0.051.

`O=P(O)(CCc1ccncc1)CN1CCCCC1` displayed a z-score of -0.0217.

As to `Cc1[nH]c2ccccc2c(=O)c1CN(C)Cc1ccccc1`, the z-score was 0.088.

In turn, `COc1ccc(N2CCN(C(=O)NC3CCCCC3)CC2)cc1` came in with a z-score of -0.261.

For the molecule `COc1ccc(OC)c(-n2c(=S)[nH]c3cc(C(=O)NCCCN4CCCC4=O)ccc3c2=O)c1`, the z-score amounted to 0.764.

In turn, `CCCC(=O)Nc1ccc2c(c1)C(=O)NC2=O` registered a z-score of -0.148.

Take `O=C1Nc2ccccc2N(O)N1c1cc(-c2ccccc2Cl)no1`: the z-score was 0.349.

In the case of `COC(=O)c1ccc(N2CCOCC2)c(F)c1`, the z-score is -0.134.

In turn, `CCC(C)NC(=O)CSc1ccc(NC(C)=O)cc1` (stereo not drawn) had a z-score of -0.286.

`C=C(C)CNC(=S)N1CCNC(=O)C1CC(=O)OC` (stereo not drawn): the z-score is 0.179.

For `CCOC(=O)C1=C(C)NC(SC(C)=O)=NC1c1ccc(OC(C)=O)c(OC)c1` (stereo not drawn), the z-score was -1.14.

`CCn1c2ccc(Cl)cc2c2nc3ccccc3nc21` gave a z-score of -0.419.

In the case of `CCOc1nc(NCCN2CCOCC2)nc(Nc2ccc(C)cc2)n1`, the z-score was -0.0761.

`Cc1ccc(-n2c(SCC(N)=O)nnc2-c2ccccn2)cc1`: the z-score was found to be 2.09.

In turn, `COC(=O)c1cc[n+](CC(=O)c2ccccc2)cc1` had a z-score of -0.00891.

In turn, `Cc1nn(Cc2ccccc2)c(Cl)c1/C=N/NC(=O)CNc1cccc(C(F)(F)F)c1` had a z-score of -0.295.

For the molecule `CCC1(C)OC(=O)N(CCCn2ccnc2C)C1(C)O` (stereo not drawn), the z-score came out at 0.115.

As for `COCCn1c(SCC(=O)Nc2sc(C)c(C)c2C#N)nnc1C(C)C`, the z-score is -0.0552.

`COc1ccc(Oc2c(Cl)cnn(-c3ccc(F)cc3)c2=O)cc1`: the z-score is -0.0572.

On to `COC(=O)C(CCSC)NC(=O)c1cccc([N+](=O)[O-])c1` (stereo not drawn), for which the z-score was -0.0969.

On to `O=C(Nc1ccc2nccnc2c1)c1cnccn1`, for which the z-score was determined as 0.219.

`C(=N\c1nccs1)/Nc1nccs1`: the z-score is -0.401.

Molecule `CN(C)/C=C1/N=C(c2ccccc2)OC1=O` gave a z-score of -0.23.

`COc1ccc(C2CC(c3ccccc3)=NN2C(=O)CN2N=NC3C(=O)N(c4cccc(F)c4)C(=O)C32)cc1` (stereo not drawn): the z-score is 0.0157.

For the molecule `O=C(c1ccc(F)cc1)N1CCCCC(Sc2nnnn2-c2ccccc2)C1=O` (stereo not drawn), the z-score is -0.282.

For the molecule `COc1ccc(C(=O)O)cc1S(=O)(=O)Nc1cccc(C)c1`, the z-score was found to be 0.319.

In the case of `COc1ccc(CO/N=C/c2c(C)[nH]c(=O)[nH]c2=O)cc1`, the z-score is active: 3.36.

For the molecule `Cc1ccc(-c2cn(-c3ccccc3)c(SCC(=O)NC3CCS(=O)(=O)C3)n2)cc1C` (stereo not drawn), the z-score was active: 3.44.

For `O=C(CCC1CCCC1)Nc1ccc(Br)cn1`, the z-score is -0.393.

`COc1cccc(C(=O)N2CCN(C3CCC(c4ccccc4)CC3)CC2)c1` (stereo not drawn) displayed a z-score of -0.715.

The molecule `COc1cccc(-c2noc(-c3cccs3)n2)c1` came in with a z-score of -0.142.

Turning to `Cc1cccc(C2Nc3ccccc3C(=O)N2CCc2ccccc2)n1` (stereo not drawn), the z-score was -1.54.

In turn, `O=C(N/N=C/c1coc2ccccc2c1=O)c1cn(-c2ccccc2)nc1-c1ccccc1` yielded a z-score of -0.582.

In turn, `Cc1cccc(NC(=S)Nc2ccc(N3CCOCC3)cc2)c1C` registered a z-score of 0.155.

Take `COc1ccc(NS(=O)(=O)c2ccc(N3CCCC3)c(NC(=S)Nc3cccc(C)c3C)c2)cc1`: the z-score is 0.291.

Consider `Cc1ccc(CNc2ccc(N3CCOCC3)cc2)s1`, for which the z-score is -0.358.

In turn, `CCCCC(NC(C)=O)c1nc2ccccc2[nH]1` (stereo not drawn) yielded a z-score of 0.699.

Molecule `Cc1c(O)cc2n(c1=O)-c1ccc(Cl)cc1C2(C)C` gave a z-score of -0.373.

In turn, `CC(=O)N1N=C(c2ccco2)CC1c1ccc(C)cc1` (stereo not drawn) yielded a z-score of 0.0902.

`CCOC(=O)c1c(NC(=O)CSc2nnc(Cc3csc(N)n3)n2C)sc(C)c1C` registered a z-score of -1.81.

In turn, `C=CCSc1nc(C)c(CC=C)c(=O)[nH]1` displayed a z-score of 0.0891.

Turning to `CCOC(=O)c1cnc(SC)nc1Sc1ccccc1Cl`, the z-score is -0.159.

Turning to `c1csc(-c2csc3nc(CN4CCOCC4)nc(NCc4ccc5c(c4)OCO5)c23)c1`, the z-score is -0.042.

Regarding `CCn1c(SCc2ccc(F)cc2)nnc1-c1nn(-c2ccccc2)ccc1=O`, the z-score is -0.00976.

Consider `O=C(c1ccc2c(c1)OCO2)N(Cc1ccco1)C1(C(=O)NC2CCCCC2)CCCCC1`, for which the z-score amounted to 0.593.

Take `COc1ccc(C2NC(=S)NC3=C2CCc2ccccc23)cc1OC` (stereo not drawn): the z-score is -0.416.

Turning to `CC(C)Cc1nnc(NC(=O)CCN2C(=O)c3ccccc3C2=O)s1`, the z-score is -0.142.

Turning to `COc1ccc2occ(C(=O)c3coc4ccc(O)c(CN(C)C)c34)c2c1`, the z-score worked out at 0.937.

Consider `COCCN(C(=O)c1csnn1)C(C(=O)NC1CCCCC1)c1cccs1` (stereo not drawn), for which the z-score worked out at 0.206.

Molecule `CSc1nsc(/C=C/Nc2ccc(C)cc2)c1C#N` registered a z-score of -0.4.

With `N/C(=N\OC(=O)c1cc(-c2ccccc2)nc2ccccc12)c1ccc(Cl)cc1`, the z-score was -0.32.

In turn, `Cn1c(=O)c(=O)n(C)c2cc(S(=O)(=O)Nc3ccc(OC(F)(F)F)cc3)ccc21` gave a z-score of -0.557.

Regarding `O=C(c1ccc(Cl)cc1)N1CCN(C(=O)c2ccco2)CC1`, the z-score was determined as 0.0619.

Molecule `CCOC(=O)c1nnn(-c2nc(N3CCCC3)nc(N3CCCC3)n2)c1-c1ccccc1` registered a z-score of 0.109.

Regarding `O=C(Nc1ncccn1)c1cc(-c2cccc(Br)c2)nc2ccccc12`, the z-score is -0.206.

`O=C(Nc1ccc(Cl)c(Cl)c1)OCCNC(=O)c1cccc(Cl)c1` displayed a z-score of 0.533.

For the molecule `COc1ccccc1NC(=O)CCC(=O)N/N=C(/C)c1ccc(C)cc1`, the z-score is -0.549.

For `COc1ccc(-c2csc(Nc3ccc(S(=O)(=O)Nc4cc(OC)nc(OC)n4)cc3)n2)cc1`, the z-score was -0.397.

For `CCCN1C2CCCC1CC(NC(=O)NC1CCCCC1)C2` (stereo not drawn), the z-score amounted to 0.355.

For the molecule `COc1ccc(NC2=CC(=O)CC(c3ccccc3)C2)c(OC)c1` (stereo not drawn), the z-score was 0.118.

In turn, `NCC12CC3CC(C1)CC(CN)(C3)C2` gave a z-score of 0.158.

`CC1CCCN(C(=O)c2ccncc2)C1` (stereo not drawn) returned a z-score of -0.122.

In the case of `CN(C(=O)c1ccc2c(=O)n3c(nc2c1)CCCCC3)c1ccccc1`, the z-score is -0.189.

For the molecule `COCCCn1c(-c2ccccc2Cl)n[nH]c1=S`, the z-score was 0.38.

`Cc1ccc(C(=O)Nc2ccc(Cl)cn2)cc1` returned a z-score of 0.195.

In turn, `COC(=O)C1=C(COc2ccc(F)cc2)NC(=O)NC1c1ccc(C)cc1C` (stereo not drawn) came in with a z-score of -0.235.

`COc1ccc(S(=O)(=O)N2CCCC(C(=O)Nc3ccc4c(c3)OCCO4)C2)cc1` (stereo not drawn): the z-score is -0.103.

Consider `CC(C)CNC(=O)COC(=O)c1cc(Cl)cc(Cl)c1N`, for which the z-score is -0.101.

`c1ccc(-c2nnnn2CCOCCn2nnnc2-c2ccccc2)cc1` displayed a z-score of 0.669.

As to `COc1ccc(-c2csc(NC(=O)c3ccccc3NS(=O)(=O)c3ccc(C)cc3)n2)cc1`, the z-score is -1.52.

With `O=C(CCN1C(=O)c2ccccc2C1=O)N1CCCCCC1`, the z-score came to 0.016.

Molecule `O=C(Nc1ccccc1F)c1cc2nc(C(F)F)cc(C(F)F)n2n1` came in with a z-score of 0.0429.

In turn, `Cc1ccc(SCC(=O)N2c3ccccc3Sc3ccccc32)cc1` came in with a z-score of -0.197.

As to `CN(CCCNC(=O)c1ccc(N2CCCC2=O)cc1)c1ccccc1`, the z-score amounted to 0.934.

`O=C(NC1CCCc2ccccc21)C(Cc1ccccc1)NS(=O)(=O)c1cccs1` (stereo not drawn) returned a z-score of -0.156.

Molecule `CCOCCn1c(CN2CCN(c3ccccc3)CC2)nc2c1c(=O)n(C)c(=O)n2C` gave a z-score of 0.292.

`C=CCNC(=O)c1cccc(C(F)(F)F)c1` gave a z-score of 0.0916.

Consider `CN1CCN(C(=S)c2ccc(OCC(=O)Nc3cccc(C(F)(F)F)c3)cc2)CC1`, for which the z-score is -0.00689.

With `c1ccc(-n2nnnc2Sc2ncnc3sc4c(c23)CCCC4)cc1`, the z-score was -0.339.

For the molecule `CCOC(=O)c1nnn(-c2nonc2N)c1CSc1ccc(C)cc1`, the z-score turned out to be 0.333.

The molecule `CCCNc1cc(C)oc(=O)c1C(=O)CCC` returned a z-score of -0.441.

Consider `Cc1cc(=O)c2c(O)c(O)ccc2o1`, for which the z-score turned out to be 1.17.

As to `COc1ccc(-c2cc(-c3c(O)c(OC)c4occc4c3OC)[nH]n2)cc1`, the z-score is -0.28.

Molecule `CCOC(=O)C1CCCN(C(=O)c2cc(=O)c3ccccc3o2)C1` (stereo not drawn) came in with a z-score of 2.91.

Turning to `COc1cccc(Nc2cc(C)nc3nc(C)nn23)c1`, the z-score was found to be 0.0995.

In turn, `N#CCc1c(C#N)c(N)nc(N2CCN(Cc3ccc4c(c3)OCO4)CC2)c1C#N` came in with a z-score of -0.642.

The molecule `Nc1cc(=O)[nH]c(SC/C=C/c2ccccc2)n1` yielded a z-score of -0.0492.

With `c1cncc(-c2nnc3n2C2(CCCCC2)Cc2ccccc2-3)c1`, the z-score is -0.785.

For the molecule `S=c1[nH]ncn1-c1ccccn1`, the z-score was -0.153.

In turn, `Cn1c(SCC(=O)NCc2ccco2)nc2ccccc2c1=O` gave a z-score of -0.354.

Regarding `COc1cc(C(=O)NCC(=O)N/N=C/c2cccs2)cc(OC)c1OC`, the z-score is -0.174.

The molecule `COc1ccc(-c2nnc(SCC(=O)Nc3cc(F)ccc3C)o2)cc1` came in with a z-score of -0.209.

In turn, `N/C(=N\c1nc2ccccc2o1)NC(=O)c1ccccc1F` gave a z-score of 1.12.

`C/C(CC(=O)Nc1ccc(Cl)c(Cl)c1)=N\NC(N)=S` came in with a z-score of 0.503.

Consider `CC1=Nn2c(nnc2-c2cc(-c3ccccc3)n[nH]2)SC1`, for which the z-score turned out to be 0.859.

As for `Cc1ccc(P(C)(=O)c2ccc(C)cc2)cc1`, the z-score is 0.0656.

For the molecule `CC(=O)N1CCC2(CC1)CC(=O)c1cc(OCC(=O)NCc3ccc(C)cc3)ccc1O2`, the z-score is 0.072.

With `CCN(CC)c1ncnc2c1ncn2Cc1c(Cl)cccc1Cl`, the z-score is -0.538.

Regarding `C/C(Cl)=C\Cn1c(N2CCCC2)nc2c1c(=O)[nH]c(=O)n2C`, the z-score was 0.763.

`CC(=O)Nc1ccc(Nc2nc(C)c([N+](=O)[O-])c(Nc3ccc(NC(C)=O)cc3)n2)cc1` showed a z-score of -1.15.

Molecule `CN(C)S(=O)(=O)Oc1cccc(C(=O)Nc2ccccc2Cl)c1` registered a z-score of -0.0916.

Turning to `C=CCn1c(C)cc(C2=NNC(=NCC)SC2)c1C`, the z-score was 0.18.

Consider `CCOC(=O)C1CCN(C(=O)c2cccc(Cl)c2)CC1`, for which the z-score was 0.0552.

On to `COc1ccc(Cl)cc1S(=O)(=O)NCc1cccs1`, for which the z-score is -0.292.

As to `CCOc1ccc(C2N(c3cc(Cl)ccc3OC)C(=O)C3CCCN32)cc1OC` (stereo not drawn), the z-score is -0.177.

In turn, `CCOC(=O)c1[nH]c(=O)[nH]c1CSc1ccccn1` displayed a z-score of -0.607.

As to `CCCOc1cccc(NC(=O)c2c(-c3ccccc3)noc2C)c1`, the z-score was -0.22.

`CC(C)NC(=O)Cn1nnc(-c2cccc(NC(=O)c3ccccc3F)c2)n1` came in with a z-score of -0.717.

As to `CCN(CC)S(=O)(=O)c1ccc(NC(=O)c2ccc(N(C)S(C)(=O)=O)cc2)cc1`, the z-score is -0.585.

As to `CCOc1ccc(C(=O)CSc2nnc3ccccn23)cc1`, the z-score is -0.111.

In the case of `COCCNS(=O)(=O)c1ccc(-c2ccc(S(=O)(=O)NCCOC)cc2)cc1`, the z-score came to 0.0682.

For the molecule `CC(C)(C)c1ccc(C(=O)Nc2ccccc2NC(=O)c2ccco2)cc1`, the z-score is -0.826.

Take `CCOC(=O)c1c(NC(=O)C2=C(C)NC(=S)NC2c2ccccc2C(F)(F)F)sc(C)c1C` (stereo not drawn): the z-score is -0.198.
